Measured values as given in the supplement of paper PMC4604168 (melanoma cell lines).
The list shows a part of the results. Most values come without repeats; read them as rough.

Each molecule was assayed on LOXIMVI (assay: cell count relative to DMSO control; melanoma cells; higher = more viable cells). Settings: library dose: low library concentration; 72 h.
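Also: cell number obtained by counting DAPI-stained nuclei in high-throughput microscope images with image analysis software, screen run in 1,536-well plates.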

SMILES | cell count [%]
CC[C@]1(O)C[C@H]2CN(CCc3c([nH]c4ccccc34)[C@@](C(=O)OC)(c3cc4c(cc3OC)N(C=O)[C@H]3[C@@](O)(C(=O)OC)[C@H](OC(C)=O)[C@]5(CC)C=CCN6CC[C@]43[C@@H]65)C2)C1 [vincristine] + Cn1c(=O)n(-c2ccc(C(C)(C)C#N)cc2)c2c3cc(-c4cnc5ccccc5c4)ccc3ncc21 [NVP-BEZ235] (first compound 0.0001 µM, partner dose 0.004 µM) | 74.9
CC[C@]1(O)C[C@H]2CN(CCc3c([nH]c4ccccc34)[C@@](C(=O)OC)(c3cc4c(cc3OC)N(C=O)[C@H]3[C@@](O)(C(=O)OC)[C@H](OC(C)=O)[C@]5(CC)C=CCN6CC[C@]43[C@@H]65)C2)C1 [vincristine] + CO[C@H]1C[C@@H]2CC[C@@H](C)[C@@](O)(O2)C(=O)C(=O)N2CCCC[C@H]2C(=O)O[C@H]([C@H](C)C[C@@H]2CC[C@@H](OCCO)[C@H](OC)C2)CC(=O)[C@H](C)/C=C(\C)[C@@H](O)[C@@H](OC)C(=O)[C@H](C)C[C@H](C)/C=C/C=C/C=C/1C [everolimus] (first compound 0.0001 µM, partner dose 0.02 µM) | 102
N#CC[C@H](C1CCCC1)n1cc(-c2ncnc3[nH]ccc23)cn1 [ruxolitinib] + CC[C@]1(O)C[C@H]2CN(CCc3c([nH]c4ccccc34)[C@@](C(=O)OC)(c3cc4c(cc3OC)N(C=O)[C@H]3[C@@](O)(C(=O)OC)[C@H](OC(C)=O)[C@]5(CC)C=CCN6CC[C@]43[C@@H]65)C2)C1 [vincristine] (first compound 1 µM, partner dose 0.0001 µM) | 66.6
N#CC[C@H](C1CCCC1)n1cc(-c2ncnc3[nH]ccc23)cn1 [ruxolitinib] + O=C(Nc1ccccc1)c1cc([N+](=O)[O-])ccc1Cl [GW9662] (first compound 1 µM, partner dose 2 µM) | 86.2
N#CC[C@H](C1CCCC1)n1cc(-c2ncnc3[nH]ccc23)cn1 [ruxolitinib] + CC(=O)O[C@@]12CO[C@@H]1C[C@H](O)[C@@]1(C)C(=O)[C@H](O)C3=C(C)[C@@H](OC(=O)[C@H](O)[C@@H](NC(=O)OC(C)(C)C)c4ccccc4)C[C@@](O)([C@@H](OC(=O)c4ccccc4)[C@H]21)C3(C)C [Docetaxel] (first compound 1 µM, partner dose 0.0001 µM) | 64.8
N#CC[C@H](C1CCCC1)n1cc(-c2ncnc3[nH]ccc23)cn1 [ruxolitinib] + COc1ccc(Cl)c(Nc2nc3ccccc3nc2NS(=O)(=O)c2cccc(NC(=O)C(C)(C)N)c2)c1 [XL147] (first compound 1 µM, partner dose 0.8 µM) | 175
N#CC[C@H](C1CCCC1)n1cc(-c2ncnc3[nH]ccc23)cn1 [ruxolitinib] + Cc1cn(-c2cc(NC(=O)c3ccc(C)c(Nc4nccc(-c5cccnc5)n4)c3)cc(C(F)(F)F)c2)cn1 [nilotinib] (first compound 1 µM, partner dose 0.2 µM) | 123
CC[C@]1(O)C[C@H]2CN(CCc3c([nH]c4ccccc34)[C@@](C(=O)OC)(c3cc4c(cc3OC)N(C=O)[C@H]3[C@@](O)(C(=O)OC)[C@H](OC(C)=O)[C@]5(CC)C=CCN6CC[C@]43[C@@H]65)C2)C1 [vincristine] + C[C@@H](Oc1cc(-c2cnn(C3CCNCC3)c2)cnc1N)c1c(Cl)ccc(F)c1Cl [Crizotinib] (first compound 0.0001 µM, partner dose 0.2 µM) | 117
N#CC[C@H](C1CCCC1)n1cc(-c2ncnc3[nH]ccc23)cn1 [ruxolitinib] + COc1ccc(C2=N[C@@H](c3ccc(Cl)cc3)[C@@H](c3ccc(Cl)cc3)N2C(=O)N2CCNC(=O)C2)c(OC(C)C)c1 [Nutlin-3] (first compound 1 µM, partner dose 0.1 µM) | 91.6
N#CC[C@H](C1CCCC1)n1cc(-c2ncnc3[nH]ccc23)cn1 [ruxolitinib] + Cn1sc(=O)n(Cc2ccccc2)c1=O [TDZD-8] (first compound 1 µM, partner dose 0.4 µM) | 92.8
CC[C@]1(O)C[C@H]2CN(CCc3c([nH]c4ccccc34)[C@@](C(=O)OC)(c3cc4c(cc3OC)N(C=O)[C@H]3[C@@](O)(C(=O)OC)[C@H](OC(C)=O)[C@]5(CC)C=CCN6CC[C@]43[C@@H]65)C2)C1 [vincristine] + O=C(O)[C@@H]1[O][Sb](=[O])([O][Sb]2(=[O])[O][C@H]([C@H](O)CO)[C@H](O)[C@H](C(=O)O)[O]2)[O][C@H]([C@H](O)CO)[C@@H]1O [stibogluconate] (first compound 0.0001 µM, partner dose 2 µM) | 102
N#CC[C@H](C1CCCC1)n1cc(-c2ncnc3[nH]ccc23)cn1 [ruxolitinib] + Nc1cccc2c1CN(C1CCC(=O)NC1=O)C2=O [lenalidomide] (first compound 1 µM, partner dose 1 µM) | 123
CC[C@]1(O)C[C@H]2CN(CCc3c([nH]c4ccccc34)[C@@](C(=O)OC)(c3cc4c(cc3OC)N(C=O)[C@H]3[C@@](O)(C(=O)OC)[C@H](OC(C)=O)[C@]5(CC)C=CCN6CC[C@]43[C@@H]65)C2)C1 [vincristine] + C#Cc1cccc(Nc2ncnc3cc(OCCOC)c(OCCOC)cc23)c1 [erlotinib] (first compound 0.0001 µM, partner dose 0.8 µM) | 113
CC[C@]1(O)C[C@H]2CN(CCc3c([nH]c4ccccc34)[C@@](C(=O)OC)(c3cc4c(cc3OC)N(C=O)[C@H]3[C@@](O)(C(=O)OC)[C@H](OC(C)=O)[C@]5(CC)C=CCN6CC[C@]43[C@@H]65)C2)C1 [vincristine] + Nc1cccc2c1CN(C1CCC(=O)NC1=O)C2=O [lenalidomide] (first compound 0.0001 µM, partner dose 1 µM) | 58.9
N#CC[C@H](C1CCCC1)n1cc(-c2ncnc3[nH]ccc23)cn1 [ruxolitinib] + NC1(c2ccc(-c3nc4ccn5c(=O)[nH]nc5c4cc3-c3ccccc3)cc2)CCC1 [MK2206] (first compound 1 µM, partner dose 0.4 µM) | 107
N#CC[C@H](C1CCCC1)n1cc(-c2ncnc3[nH]ccc23)cn1 [ruxolitinib] + C#Cc1cccc(Nc2ncnc3cc(OCCOC)c(OCCOC)cc23)c1 [erlotinib] (first compound 1 µM, partner dose 0.8 µM) | 135
Cc1cc(Nc2cc(N3CCN(C)CC3)nc(Sc3ccc(NC(=O)C4CC4)cc3)n2)n[nH]1 [Tozasertib] + O=c1cc(-c2cccc3c2Sc2ccccc2S3)oc(N2CCOCC2)c1 [KU55933] (first compound 0.006 µM, partner dose 1 µM) | 128
N#CC[C@H](C1CCCC1)n1cc(-c2ncnc3[nH]ccc23)cn1 [ruxolitinib] + COCC[n+]1c2c(n(Cc3cnccn3)c1C)C(=O)c1ccccc1C2=O [YM155] (first compound 1 µM, partner dose 0.0004 µM) | 112
CC[C@]1(O)C[C@H]2CN(CCc3c([nH]c4ccccc34)[C@@](C(=O)OC)(c3cc4c(cc3OC)N(C=O)[C@H]3[C@@](O)(C(=O)OC)[C@H](OC(C)=O)[C@]5(CC)C=CCN6CC[C@]43[C@@H]65)C2)C1 [vincristine] + NC(=O)c1ccc(N(C(N)=O)c2c(F)cccc2F)nc1-c1ccc(F)cc1F [VX702] (first compound 0.0001 µM, partner dose 0.4 µM) | 90.4
CC[C@]1(O)C[C@H]2CN(CCc3c([nH]c4ccccc34)[C@@](C(=O)OC)(c3cc4c(cc3OC)N(C=O)[C@H]3[C@@](O)(C(=O)OC)[C@H](OC(C)=O)[C@]5(CC)C=CCN6CC[C@]43[C@@H]65)C2)C1 [vincristine] + CC(=O)c1c(C)c2cnc(Nc3ccc(N4CCNCC4)cn3)nc2n(C2CCCC2)c1=O [palbociclib] (first compound 0.0001 µM, partner dose 0.04 µM) | 54.7
N#CC[C@H](C1CCCC1)n1cc(-c2ncnc3[nH]ccc23)cn1 [ruxolitinib] + CCCS(=O)(=O)Nc1ccc(F)c(C(=O)c2c[nH]c3ncc(Cl)cc23)c1F [PLX4720] (first compound 1 µM, partner dose 0.08 µM) | 107
Cc1cc(Nc2cc(N3CCN(C)CC3)nc(Sc3ccc(NC(=O)C4CC4)cc3)n2)n[nH]1 [Tozasertib] + N#CC[C@H](C1CCCC1)n1cc(-c2ncnc3[nH]ccc23)cn1 [ruxolitinib] (first compound 0.006 µM, partner dose 1 µM) | 92.9
Cc1cc(Nc2cc(N3CCN(C)CC3)nc(Sc3ccc(NC(=O)C4CC4)cc3)n2)n[nH]1 [Tozasertib] + NC(=O)c1ccc(N(C(N)=O)c2c(F)cccc2F)nc1-c1ccc(F)cc1F [VX702] (first compound 0.006 µM, partner dose 0.4 µM) | 81.1
CC[C@]1(O)C[C@H]2CN(CCc3c([nH]c4ccccc34)[C@@](C(=O)OC)(c3cc4c(cc3OC)N(C=O)[C@H]3[C@@](O)(C(=O)OC)[C@H](OC(C)=O)[C@]5(CC)C=CCN6CC[C@]43[C@@H]65)C2)C1 [vincristine] + C=C(c1ccc(C(=O)O)cc1)c1cc2c(cc1C)C(C)(C)CCC2(C)C [Bexarotene] (first compound 0.0001 µM, partner dose 2 µM) | 96.9
